B1: CPEB3 Ribozyme (parent)
chain: UAACAGGGGGCCACAGCAGAAGCGUUCACGUCGCAGCCCCUGUCAGAUUCUGGUGAAUCUGCGAAUUCUGCUGUAUAUCUC

Read counts are not given, so values of variants with three or more changes are uncertain.

This data set covers variants of B1. The experiment in a line: self-cleavage, relative activity (ratio to wild type); higher = more cleavage; in vitro, sequencing. In short, it runs like this: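 Relative activity was defined as the cleaved/total read fraction for a variant divided by the same fraction for the unmutated ribozyme. CPEB3 self-cleaving ribozyme libraries were made by rounds of error-prone PCR, barcoded, and transcribed in vitro with T7 RNA polymerase for 5 hours at 37°C, and cleavage ran through transcription plus a 15 min DNase I step before EDTA. Illumina sequencing of template-switched reverse transcripts gave the reads, and DNA sequencing mapped the barcodes. Averages come from three batches, using variants with at least 5 reads.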
As to UAAUAGGGGGCCUCUACAGAAGCGUUCACGUCGCAGCCCCUGUCAGAUUCUGGUGAAUCUGUGAAUUCAGCUGUAUAUCUC [C4U A13U A15U G16A C62U U69A], the self-cleavage turned out to be 0.14.
As for UAAUAGGGGGCCACAGCAGGAGCGUUCACGCCGCAGCCCCUGUCAGAUCCUGGUGAAUCUGCGAAUUCUGCUGAAUAUCUC [C4U A20G U31C U49C U74A], the figure is 0.29.
The figure for UAAGAGGGGGCCACAGCAGAAGCGUUCACGUCGCAGCCCCUGCCAGAUUCUGGCGAAUCUGCGAAUUCUGCUGUAUGUCCC [C4G U43C U54C A77G U80C] is 0.16; for UAAUUGGGGGCCACAGCAGAAGCGUACACGUCGCAGCCCCUGUCAGAUUCUGGUGAAUCUGCGAAUUCUGUUGUAUAUCUC [C4U A5U U26A C71U] it is 0.98; for UAAGAGGGGGCCACAGCAGAGGCGUUCACGUCGCAGCCCCUGUCAGAUUCUGGUGAAUCUGCGAAUUCUGCUGUAUAUCCC [C4G A21G U80C] it is 0.84.
As for UAAAAGGGGGCCACAGCAGAAGCGUUCACGUCGCAGCCCCUGUCAGACUCUGGUGAAUCUGCGAAUUCUGCUGUAUACCUC [C4A U48C U78C], the figure is 0.7; as for UAAGAGGGGGCCACAGCAGGAGCAUUCACGUCGCAGCCCCUGUCAGAUUUUGGGGAAUCUGCGGAUUCUGCUGUAUAUCUC [C4G A20G G24A C50U U54G A64G], 0.06.
For UAAGAGGGGGUCACAGCAGAAGCGUUCACGUCGCAGCCCCUGUCAGAUACUGGUGAAUCUGCGAAUUCUGCUGUAUUUCUC [C4G C11U U49A A77U], the self-cleavage was determined as 0.36.
The figure for UAAUUGGGGGCCACAGCAGAAGCGUCCACGCCGCAGCCCCUGCCAGAUUCUGGUGAAUCUGCGAAUUCUGCUGUAUAUCUC [C4U A5U U26C U31C U43C] is 0.26.
As for UAAGAGGGGGCAACUGCAGAAGCGUUCACGUCGCAGCCCCUGUCAGAUUCUGGUGAAUCUGCGAAUUCUGCUGUAUAUCUC [C4G C12A A15U], the figure is 0.97; as for UAAUAGGGGGCCACAGCAGUAGCGUACUCGUCGCAGCCCCUGUCAGAUUCUGGUGAAUCUGCGAAUCCUGCUGUAUAUCUC [C4U A20U U26A A28U U67C], 0.15.
The figure for UAAGAGGGGGCCACAGCAGAUGCGCUCACGUCGCAGCCCCUGUCAGAUUCUGGUGAAUCUGCGAAUUCUGCGGUAUAUCUC [C4G A21U U25C U72G] is 0.18; for UAAUAGGGGGCCACGGCAGAAGCGCUCACGUUGCAGCCCCUGUCAGAUUCUGGUGAAUCUGCGUAUUCUGCUGUAUAUCAC [C4U A15G U25C C32U A64U U80A] it is 0.16; for UAAUAGGGGGCCACAGCAGUAGCGUCCACGUCGCAGCCCCUGUCAGAUUCUGGUGAAUCUGCGGAUUCCGCUGUAUAUCUC [C4U A20U U26C A64G U69C] it is 0.2.
In the case of UAAGAGGGGGCCACAGCAGAAGCGUUCACGUCGCAGCCCCUGUCAGUUUCUGGUGAAUCCGCGGACUCUGCUGUAUAUCUC [C4G A47U U60C A64G U66C], the self-cleavage stood at 0.21.
As for UAAGAGGGGGCCACAGCAGAAGCGUUCACGUCGCUGCCCCUGUCAGAUUCUGGUGAAUCUGCGAAUUCAGCUGUAUAUCUC [C4G A35U U69A], the figure is 0.42; as for UAAGGGGGGGCUACAGCAGAAGCGCUCACGUCGCAGUCCCCGUCUGAUUCUGGUGAAUCUGCGAAUUCUGCUGUAUAUCUC [C4G A5G C12U U25C C37U U41C A45U], 0.09.
The figure for UAAUAGGGGGCCACUGCAGAAGCGUACACGUCGCAGCCCCUGUCAGAUUCUGGUGAAUCUGCGAAUUCUGCUGUGUAUCUC [C4U A15U U26A A75G] is 0.81; for UAAGAGGGGGCCGCAGCAGAAGCGUUCACGUCGCAGCCCCUGUCCGAUUCUGGUGAAUCUGCGAAUUCUGCUGUAUAUCUC [C4G A13G A45C] it is 0.49; for UAAUAGGGGGCCACGGCAGAAGCGUUCACGUCGCAGCCCCCGUCAGAUCCUGGUGAAUCCGCGAAUUCUGCUGUAUAUCUC [C4U A15G U41C U49C U60C] it is 0.17.
As for UAAUAGGGGGCCACAGCAGUAGCGUUCACGUCGCAGCCCCUGUCAGAUUCUGGUGAGUCUGCGAAUCCUGCUGUAUAUCUC [C4U A20U A57G U67C], the figure is 0.17.
Consider UAAGAGGGGGCCACAGCGGAAGCGUACUCGUCGCAGCCCCUGUCAGAUUCUGGUGAAUCAGCGAAUUCUGCUGUAUAUCUC [C4G A18G U26A A28U U60A], for which the self-cleavage was 0.3.
The figure for UAAGAGGGGGCCACAGCAGAAGCGUCCACGUCGCAGCCCGUGACAGAUUCUGGUGAAUCCGCGAAUUCUGCUGUAUAUCUC [C4G U26C C40G U43A U60C] is 0.29; for UAAGAGGGGGCCUCAGCAGAAGCGUUCACGUCGCAGCCCUUGCCAGAUUCUGGUGAAUCCGCGAAUUCUGCUGUAUAUCUC [C4G A13U C40U U43C U60C] it is 0.12.
The figure for UAAUGGGGGGCCACAGCAGAAGCGUUCACGCCGCAGCCCCUGUCAGAUUCUGGUGAAUCUGCGAAUUCUGCUGUAUAUCUC [C4U A5G U31C] is 0.51; for UAAGAGGGGGCCACUGCAGAAGCGUUCACGCCGCAGCCCCUGUCAGAUUCUGGUGAAUCUGCGAAUUCUGCUGUAUAUCUC [C4G A15U U31C] it is 0.19; for UAAGUGGGGGCCACAGCAGAAGCGUUCACCUCGCAGCCCCUGUCAGAUUCUGGUGAAUCUGCGAAUUCUGCUGUAUAUCUC [C4G A5U G30C] it is 0.09.
As for UAAGAGGGGGCCACAGCAGAAGCGUCCACGUCGCAGCCCCUGUCGGAUUCUGGUGAAUCAGCGAAUUCUGCUGUAUAUCUC [C4G U26C A45G U60A], the figure is 0.15; as for UAAGAGGGGGCCACAGCAGAGGCGUUCACGUCGCAGCCCCUGUCAGACUCUGGUGAAUCUGCGAAUUCUGCGGUAUAUCUC [C4G A21G U48C U72G], 0.23.
With UAAGAGGGGGCCACAGCAGAGGCGUUCACGUCGCAGCCCCUGUCAAAUUCUGGUGAAUCUGCGAAUUCAGCUGUAUAUCUC [C4G A21G G46A U69A], the self-cleavage was 0.14.
In the case of UAAGAGGGGGCCACAGCCGAAGCGUUCACGUCGCCGCCCCUGUCAGAUUCUGGUGAAUCUGCGAAUCCUGCUGUAUAUCUC [C4G A18C A35C U67C], the self-cleavage is 0.12.
The figure for UAAGAGGGGGCCACAGCAGAAGCGUUCACGCCGCAGCCCCUGUCUGAUUCUGGUGAAUCUGCGAAUUCUGCUGUAUAUCUC [C4G U31C A45U] is 0.28; for UAAGAGGGGGCCACAGCAGAAGGGUUCUCGUCGCAGCCCCUGUCAGAUUCUGGUGAAUCUGCGAAUUCUGCUGUAUACCUC [C4G C23G A28U U78C] it is 0.07.
As for UAAUAGGGGGCCUCAGCAGAAGCGUUCACGUCGCAGCCCAUGUCAGAUUCUGGUGAAUCUGCGAAUUCGGCAGUAUAUCUC [C4U A13U C40A U69G U72A], the figure is 0.07.
